Results taken from patent publication US20250092058A1 (priority 2018, published 2025).
pIC50: −log10 of the molar value. Where two headings read alike, the source gives them in different places. For at least one compound, name, drawing or mass did not settle the structure.

What was measured:
[1] = test system: HCT116; assay: MTT assay HCT116; format: cell-based, human
Protocol: (§1) MTT assays. […] Each experiment was performed at least in triplicate.

[2] = test system: HepG-2; assay: MTT assay HepG-2; format: cell-based, human
[3] = test system: MCF-7; assay: MTT assay MCF-7; format: cell-based
[4] = test system: A549; assay: MTT assay A549; format: cell-based, human
Protocol: as §1

[5] = test system: HeLa; assay: MTT assay Hela; format: cell-based, human
[6] = Table 5, MTT 72 hours, read-out: IC50/EC50

Structure (SMILES) | pIC50 ([1]; Table 6, read-out: IC50/EC50) | pIC50 ([2]; Table 6, read-out: IC50/EC50) | pIC50 ([3]; Table 6, read-out: IC50/EC50) | pIC50 ([4]; Table 6, read-out: IC50/EC50) | pIC50 ([5]; Table 6, read-out: IC50/EC50) | pIC50 [1, 6] | pIC50 [2, 6] | pIC50 [3, 6] | pIC50 [4, 6] | pIC50 [5, 6]
CCOc1ccc(-c2c3c(cc4nc5c(cc24)Cn2c-5cc4c(c2=O)COC(=O)[C@]4(O)CC)OCO3)cc1 [9Q 4, (20s)-9-(4-ethoxylphenyl)-10,11-methylenedioxy camptothecin] | 6.75 | < 6.00 | < 6.00 | 6.53 | < 6.00 |  |  |  |  | 
CC[C@@]1(O)C(=O)OCc2c1cc1n(c2=O)Cc2c-1nc1cc3c(cc1c2-c1cccc(OC)c1)OCO3 [7Q 14] |  |  |  |  |  | 7.31 | 7.83 | 7.02 | 7.67 | 7.05
CCSc1ccc(-c2c3c(nc4cc5c(cc24)OCO5)-c2cc4c(c(=O)n2C3)COC(=O)[C@]4(O)CC)cc1 [7Q 3] |  |  |  |  |  | 7.04 | 6.52 | 7.14 | 7.54 | 7.02
CC[C@@]1(O)C(=O)OCc2c1cc1n(c2=O)Cc2c-1nc1cc3c(cc1c2-c1cc(C)cc(C)c1)OCO3 [7Q 12, (20s)-7-(3,5-dimethylphenyl)-10,11-methylenedioxy camptothecin] |  |  |  |  |  | 7.19 | 7.34 | 7.06 | 7.44 | 7.47
CC[C@@]1(O)C(=O)OCc2c1cc1n(c2=O)Cc2cc3c(-c4ccc(C(C)C)cc4)c4c(cc3nc2-1)OCO4 [9Q 1, (20s)-9-(4-isopropylphenyl)-FL118 (10,11-methylenedioxy camptothecin)] | < 6.00 | < 6.00 | 6.10 | 6.12 | < 6.00 |  |  |  |  | 
CC[C@@]1(O)C(=O)OCc2c1cc1n(c2=O)Cc2c-1nc1cc3c(cc1c2-c1cccc(C)c1)OCO3 [7Q 17] |  |  |  |  |  | 7.66 | 6.87 | 7.41 | 6.94 | 6.84
CC[C@@]1(O)C(=O)OCc2c1cc1n(c2=O)Cc2c-1nc1cc3c(cc1c2-c1ccc(OC(C)C)cc1)OCO3 [7Q 18] |  |  |  |  |  | > 8.19 | 6.80 | 7.28 | 6.85 | 6.30
CCc1ccc(-c2c3c(nc4cc5c(cc24)OCO5)-c2cc4c(c(=O)n2C3)COC(=O)[C@]4(O)CC)cc1 [7Q 6] |  |  |  |  |  | 7.25 | 6.80 | 7.32 | 7.24 | 7.43
CC[C@@]1(O)C(=O)OCc2c1cc1n(c2=O)Cc2c-1nc1cc3c(cc1c2-c1cc(OC)c(OC)c(OC)c1)OCO3 [7Q 19] |  |  |  |  |  | 7.40 | 6.13 | 7.00 | 6.85 | 6.70
CC[C@@]1(O)C(=O)OCc2c1cc1n(c2=O)Cc2c-1nc1cc3c(cc1c2-c1cccc(OC(C)C)c1)OCO3 [7Q 22] |  |  |  |  |  | 6.10 | 6.00 | 7.19 | 6.40 | 6.84
CCCc1ccc(-c2c3c(cc4nc5c(cc24)Cn2c-5cc4c(c2=O)COC(=O)[C@]4(O)CC)OCO3)cc1 [9Q 5, (20s)-9-(4-propylphenyl)-FL118 (10,11-methylenedioxy camptothecin)] | 6.02 | < 6.00 | < 6.00 | 6.37 | < 6.00 |  |  |  |  | 
CCCCc1ccc(-c2c3c(cc4nc5c(cc24)Cn2c-5cc4c(c2=O)COC(=O)[C@]4(O)CC)OCO3)cc1 [9Q 2, (20s)-9-(4-butylphenyl)-FL118 (10,11-methylenedioxy camptothecin)] | 6.12 | < 6.00 | < 6.00 | 6.27 | < 6.00 |  |  |  |  | 
CC[C@@]1(O)C(=O)OCc2c1cc1n(c2=O)Cc2c-1nc1cc3c(cc1c2-c1cccc(SC)c1)OCO3 [7Q 15] |  |  |  |  |  | 7.34 | 7.10 | 7.46 | 6.88 | 6.90
CCCCOc1ccc(-c2c3c(nc4cc5c(cc24)OCO5)-c2cc4c(c(=O)n2C3)COC(=O)[C@]4(O)CC)cc1 [7Q 21] |  |  |  |  |  | 6.63 | < 6.00 | < 6.00 | 6.00 | < 6.00
CC[C@@]1(O)C(=O)OCc2c1cc1n(c2=O)Cc2c-1nc1cc3c(cc1c2-c1ccc(C)c(C)c1)OCO3 [7Q 8] |  |  |  |  |  | 7.65 | 7.19 | 7.34 | 7.66 | 6.44
CCCc1ccc(-c2c3c(nc4cc5c(cc24)OCO5)-c2cc4c(c(=O)n2C3)COC(=O)[C@]4(O)CC)cc1 [7Q 5] |  |  |  |  |  | 6.93 | 6.08 | 7.19 | 7.29 | 7.23
CCc1ccc(-c2c3c(cc4nc5c(cc24)Cn2c-5cc4c(c2=O)COC(=O)[C@]4(O)CC)OCO3)cc1 [9Q 6, (20s)-9-(4-ethylphenyl)-FL118 (10,11-methylenedioxy camptothecin)] | 6.16 | < 6.00 | < 6.00 | 6.58 | < 6.00 |  |  |  |  | 
CC[C@@]1(O)C(=O)OCc2c1cc1n(c2=O)Cc2c-1nc1cc3c(cc1c2-c1ccc(OC)cc1)OCO3 [7Q 9] |  |  |  |  |  | 7.75 | 7.19 | 7.34 | 7.36 | 7.32
CC[C@@]1(O)C(=O)OCc2c1cc1n(c2=O)Cc2c-1nc1cc3c(cc1c2-c1ccc(C(C)(C)C)cc1)OCO3 [7Q 11] |  |  |  |  |  | 7.08 | 6.85 | 6.80 | 7.19 | < 6.00
CCOc1ccc(-c2c3c(nc4cc5c(cc24)OCO5)-c2cc4c(c(=O)n2C3)COC(=O)[C@]4(O)CC)cc1 [7Q 4, (20s)-7-(4-ethoxylphenyl)-10,11-methylenedioxy camptothecin] |  |  |  |  |  | 6.65 | < 6.00 | 7.19 | 7.21 | 7.20
CC[C@@]1(O)C(=O)OCc2c1cc1n(c2=O)Cc2c-1nc1cc3c(cc1c2-c1ccc(SC)cc1)OCO3 [7Q 13] |  |  |  |  |  | 7.21 | 7.28 | 7.27 | 7.56 | 7.23
CCOc1cccc(-c2c3c(nc4cc5c(cc24)OCO5)-c2cc4c(c(=O)n2C3)COC(=O)[C@]4(O)CC)c1 [7Q 7] |  |  |  |  |  | 7.25 | 6.55 | 7.32 | 7.53 | 7.28
CC[C@@]1(O)C(=O)OCc2c1cc1n(c2=O)Cc2c-1nc1cc3c(cc1c2-c1cc(OC)cc(OC)c1)OCO3 [7Q 24] |  |  |  |  |  | 7.00 | 6.93 | > 8.19 | 7.55 | > 8.19
CC[C@@]1(O)C(=O)OCc2c1cc1n(c2=O)Cc2c-1nc1cc3c(cc1c2-c1ccc(C(C)C)cc1)OCO3 [7Q 1, (20s)-7-(4-isopropylphenyl)-10,11-methylenedioxy camptothecin] |  |  |  |  |  | 6.40 | 6.08 | 6.91 | 7.28 | 7.21
CCOc1cccc(-c2c3c(cc4nc5c(cc24)Cn2c-5cc4c(c2=O)COC(=O)[C@]4(O)CC)OCO3)c1 [9Q 7, (20s)-9-(3-ethoxylphenyl)-10,11-methylenedioxy camptothecin] | 6.59 | 6.70 | 6.81 | 6.96 | < 6.00 |  |  |  |  | 
CC[C@@]1(O)C(=O)OCc2c1cc1n(c2=O)Cc2c-1nc1cc3c(cc1c2-c1ccc([Si](C)(C)C)cc1)OCO3 [7Q 10] |  |  |  |  |  | 7.25 | 7.13 | 6.06 | 6.49 | < 6.00
CC[C@@]1(O)C(=O)OCc2c1cc1n(c2=O)Cc2c-1nc1cc3c(cc1c2-c1ccc2c(c1)OCO2)OCO3 [7Q 16] |  |  |  |  |  | 7.44 | 7.21 | 7.45 | 7.07 | 6.32
CCCOc1ccc(-c2c3c(nc4cc5c(cc24)OCO5)-c2cc4c(c(=O)n2C3)COC(=O)[C@]4(O)CC)cc1 [7Q 23] |  |  |  |  |  | 6.25 | 6.00 | 7.28 | 6.65 | < 6.00
CCCCc1ccc(-c2c3c(nc4cc5c(cc24)OCO5)-c2cc4c(c(=O)n2C3)COC(=O)[C@]4(O)CC)cc1 [7Q 2, (20s)-7-(4-butylphenyl)-10,11-methylenedioxy camptothecin] |  |  |  |  |  | 6.29 | < 6.00 | 7.22 | 7.26 | 6.94
